In the supplement of paper PMC3334620:
Over roughly 33,000 sequences, “E-score (-0.5 to 0.5)” has its median near -0.01; the highest 2% begin near 0.26. This is one part of the list.

Target: Ste12 (UniProt P13574)
Assay: PBM E-score (8-mer binding enrichment) (E-score (-0.5 to 0.5)); higher = stronger / more preferred TF binding; most listed sequences are background and not binding sites
Details: protein concentration: 200 nM; construct: GST-DNA-binding domain
Procedure: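 Universal 'all 10-mer' protein binding microarrays (Agilent AMADID 015681) probed with GST-tagged S. cerevisiae TFs (full-length or DBD) made by in vitro transcription/translation (PURExpress), about 100-200 nM. Bound TF was detected with fluorescent anti-GST. Each ungapped 8-mer (which stands for itself and its reverse complement) is scored by the PBM enrichment score (E-score), a modified Wilcoxon-Mann-Whitney statistic from -0.5 to +0.5, computed with the Universal PBM Analysis Suite. Scale: above 0.35 generally sequence-specific binding.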

First: ATACAATA
Second: ACCCTCGC
The “PBM E-score” value of the first is higher: 0.0662 for the first, -0.0273 for the second.

Compared with CATGAGAG, GTAGGGCA is lower in “PBM E-score” value: 0.025 for the first, -0.204 for the second.

First: ATCCCTTG
Second: CAAGGAAG
The “PBM E-score” value of the first is higher: -0.0717 for the first, -0.0844 for the second.

Compared with GAGATACC, GATGTCCA is higher in “PBM E-score” value: -0.128 for the first, -0.0339 for the second.

First: TGAGTGAA
Second: CTTGTATC
The “PBM E-score” value of the first is lower: 0.0936 for the first, 0.112 for the second.

First: GCCGGACC
Second: ATCAGAAG
The “PBM E-score” value of the first is lower: -0.0631 for the first, 0.0364 for the second.

Going from AGGCAGCG to CACCTCAC, the “PBM E-score” value rises from -0.209 to -0.0515.

First: AGTAGTTG
Second: CTGACCTC
The “PBM E-score” value of the first is higher: 0.0408 for the first, -0.0377 for the second.

Going from TACCGCGA to GTGAAAGA, the “PBM E-score” value rises from 0.00553 to 0.031.

Compared with AAATCGTG, ACCTAAAT is higher in “PBM E-score” value: 0.0961 for the first, 0.11 for the second.

First: CACGGATC
Second: GAACCAGC
The “PBM E-score” value of the first is lower: -0.133 for the first, 0.027 for the second.

Compared with ATAGTGTG, GCACCTGC is lower in “PBM E-score” value: 0.0404 for the first, -0.162 for the second.

Compared with CTAACTTA, GGATAGCA is higher in “PBM E-score” value: 0.0403 for the first, 0.0639 for the second.

Going from CTTCCTAC to CTGTTAGA, the “PBM E-score” value rises from -0.182 to 0.0136.

First: GGTCAGGA
Second: GGGTCTAC
The “PBM E-score” value of the first is higher: 0.00191 for the first, -0.171 for the second.

First: TACGGAAA
Second: CGTGCCCA
The “PBM E-score” value of the first is higher: 0.0853 for the first, -0.0282 for the second.

Compared with CACGGCAA, CACAGGGC is lower in “PBM E-score” value: 0.158 for the first, -0.2 for the second.

Compared with AACATCAG, ATCTCAGC is lower in “PBM E-score” value: 0.182 for the first, -0.112 for the second.

Compared with AAAGCCAT, CGCATTCC is lower in “PBM E-score” value: -0.0948 for the first, -0.208 for the second.

Going from AAATGGTC to TACCGACA, the “PBM E-score” value rises from -0.0895 to 0.0133.

Compared with ATCGTTTG, AATGATAG is higher in “PBM E-score” value: 0.0575 for the first, 0.194 for the second.

Compared with GCCAAAGC, GACTACAC is lower in “PBM E-score” value: -0.0442 for the first, -0.0845 for the second.

Compared with GTGAGTGA, ACCCTAAC is higher in “PBM E-score” value: 0.0323 for the first, 0.119 for the second.

Going from ACTAAGCG to ATCGCAGA, the “PBM E-score” value rises from -0.0935 to -0.0897.

Going from ATTCTAGA to ACGTCGTA, the “PBM E-score” value falls from 0.132 to -0.252.

Going from ACGAGTGG to AGTGATTG, the “PBM E-score” value rises from -0.155 to 0.0425.

First: CCGGTGGA
Second: CCACGGCG
The “PBM E-score” value of the first is higher: 0.0386 for the first, -0.0408 for the second.

Compared with TGGCCCAA, GCAAGACA is lower in “PBM E-score” value: -0.0405 for the first, -0.0585 for the second.

Compared with GTTAATAA, CTGTCGAC is lower in “PBM E-score” value: 0.0895 for the first, -0.15 for the second.

Going from CCACTCTC to CCGACCAA, the “PBM E-score” value rises from -0.177 to -0.0718.

Compared with GGGCAGCA, AGGCTCGA is lower in “PBM E-score” value: -0.0741 for the first, -0.126 for the second.

Compared with ACAGTCGC, AGCCCATC is lower in “PBM E-score” value: -0.131 for the first, -0.145 for the second.

First: ACGACACT
Second: CTGCAGCA
The “PBM E-score” value of the first is lower: -0.0852 for the first, 0.0849 for the second.

Going from CGCCGCCC to CTTCAGTA, the “PBM E-score” value falls from 0.239 to -0.0752.

Going from CAGGCAAG to ACGCGCTA, the “PBM E-score” value rises from -0.15 to 0.0584.

Compared with ATCTGCGC, GCATGCAA is lower in “PBM E-score” value: 0.0309 for the first, -0.0312 for the second.

Going from TAAAACCA to CCAGGTCG, the “PBM E-score” value falls from 0.21 to -0.15.

Compared with CGATCATA, GAGGAAAA is higher in “PBM E-score” value: 0.0637 for the first, 0.0833 for the second.

Compared with AACGGTCT, AAACACTG is higher in “PBM E-score” value: -0.0484 for the first, 0.248 for the second.

First: CAGGTCAA
Second: GGACGCCC
The “PBM E-score” value of the first is higher: -0.0358 for the first, -0.152 for the second.

Going from TGGTGAAA to AAGGTAGG, the “PBM E-score” value falls from 0.277 to -0.0392.

First: GCCCGATA
Second: CCGCAAAG
The “PBM E-score” value of the first is lower: -0.0773 for the first, 0.00201 for the second.

Going from CACGTGAG to GCACATAC, the “PBM E-score” value falls from 0.00678 to -0.259.

First: ACGTCTCA
Second: ACGGTTTC
The “PBM E-score” value of the first is higher: 0.274 for the first, 0.2 for the second.

First: GATAGTTA
Second: AATTCGAA
The “PBM E-score” value of the first is lower: 0.166 for the first, 0.21 for the second.

First: CTGGTCGA
Second: AGGAGCAA
The “PBM E-score” value of the first is lower: -0.196 for the first, -0.108 for the second.

Going from CTAGCTCA to CATGGATC, the “PBM E-score” value rises from -0.215 to -0.0524.

First: AGTATGCC
Second: AGGGCCAA
The “PBM E-score” value of the first is higher: -0.13 for the first, -0.23 for the second.

Compared with GAGTGGAA, CCGTCACG is higher in “PBM E-score” value: -0.102 for the first, 0.0664 for the second.

First: ACGTCAGC
Second: AGCCAATC
The “PBM E-score” value of the first is higher: 0.036 for the first, -0.0364 for the second.

First: GCTATGAC
Second: ACCTAGCA
The “PBM E-score” value of the first is lower: 0.0507 for the first, 0.113 for the second.

First: CCAAAGGC
Second: AAGATATG
The “PBM E-score” value of the first is lower: -0.153 for the first, 0.156 for the second.

First: GAAGGCAA
Second: TCCGAGCA
The “PBM E-score” value of the first is lower: 0.0764 for the first, 0.107 for the second.

First: AATCCAGG
Second: AATGCGAT
The “PBM E-score” value of the first is higher: -0.0109 for the first, -0.0389 for the second.

Compared with ACAGACGA, CGTAGTAA is lower in “PBM E-score” value: 0.0302 for the first, -0.0683 for the second.

Going from ACACAATC to CGAGAATC, the “PBM E-score” value falls from 0.0762 to -0.128.

First: ATCGACCA
Second: AATAAGAC
The “PBM E-score” value of the first is lower: -0.0672 for the first, -0.00658 for the second.

Compared with CGTCTAGC, AAGCCCGA is higher in “PBM E-score” value: -0.211 for the first, -0.152 for the second.

Compared with CCCGCCTA, GGATTAAC is lower in “PBM E-score” value: 0.112 for the first, 0.0387 for the second.

First: ATGAGCCA
Second: CCCCACGC
The “PBM E-score” value of the first is higher: -0.082 for the first, -0.135 for the second.

Going from CGCCGCTC to ATGATATC, the “PBM E-score” value falls from -0.00968 to -0.0249.

Compared with CAGACGGG, AGGATTGC is higher in “PBM E-score” value: -0.0516 for the first, -0.025 for the second.

First: AAATCCCG
Second: CAGGGATC
The “PBM E-score” value of the first is higher: 0.0351 for the first, -0.123 for the second.

First: GACAAATA
Second: AGGACTCG
The “PBM E-score” value of the first is higher: 0.114 for the first, -0.268 for the second.

Going from TGATTGCA to ACCCGCAC, the “PBM E-score” value falls from 0.00814 to 0.00611.

Going from AGACGTTA to GACCTTGA, the “PBM E-score” value rises from -0.0587 to -0.00516.

Compared with AGGTAGGG, AAACATCA is higher in “PBM E-score” value: -0.0244 for the first, 0.328 for the second.

First: AGAATTCC
Second: ATCGGCTC
The “PBM E-score” value of the first is higher: 0.189 for the first, -0.123 for the second.

First: ACTTCGAG
Second: GGTGCCAA
The “PBM E-score” value of the first is higher: 0.0994 for the first, -0.00466 for the second.

Compared with ACACTTGG, AAGTTCGG is higher in “PBM E-score” value: -0.0856 for the first, -0.0616 for the second.

First: AAGAGATG
Second: CTGGACCA
The “PBM E-score” value of the first is higher: 0.0742 for the first, -0.0242 for the second.

Going from CACTATTC to CATGCACG, the “PBM E-score” value falls from 0.0168 to -0.212.

Compared with AAGGATGA, GCTACAAA is higher in “PBM E-score” value: 0.0364 for the first, 0.0903 for the second.

First: ACGTTGAA
Second: ATGCAACC
The “PBM E-score” value of the first is higher: 0.0985 for the first, 0.0477 for the second.

Compared with TGTCAGAA, AAGCATTA is lower in “PBM E-score” value: 0.107 for the first, -0.0548 for the second.

Compared with AATATTGA, TCTCAGAA is lower in “PBM E-score” value: 0.187 for the first, 0.0441 for the second.

Compared with CAATGCGC, TGGGAAAA is higher in “PBM E-score” value: 0.0832 for the first, 0.141 for the second.

Going from TCAAGTGA to CTACGGGC, the “PBM E-score” value falls from -0.0459 to -0.225.

Going from CCTCATCC to CAGGTAGC, the “PBM E-score” value falls from 0.112 to -0.26.

First: ACACCGTA
Second: ACTTCGCA
The “PBM E-score” value of the first is higher: -0.0259 for the first, -0.0371 for the second.

Going from ATCATCAC to CCGTAGCG, the “PBM E-score” value falls from 0.12 to -0.0386.

First: TAATTGTA
Second: AGAACCTC
The “PBM E-score” value of the first is higher: 0.232 for the first, -0.112 for the second.

Going from CTGGGGAA to ACTAACAA, the “PBM E-score” value rises from -0.235 to 0.0251.

Compared with TCCAACAA, TAGTAGGA is higher in “PBM E-score” value: -0.0926 for the first, -0.0533 for the second.

Compared with GCTTTGAC, ACCGGGCC is lower in “PBM E-score” value: 0.0316 for the first, -0.0251 for the second.

Going from ACCGACAC to AGGTATAC, the “PBM E-score” value rises from -0.114 to -0.0236.
